Measured values as given in paper PMC12820563.
The list shows a part of the results. The list includes weakly bound sequences.

biological target: T1, MBP-FoxP3dN (UniProt Q99JB6); assay: PD-seq (MBP pull-down with sequencing); conditions: 20 mM Tris-HCl pH 7.5, 100 mM NaCl, 1.5 mM MgCl2, 0.4 uM protein, 0.1 uM dsDNA library, 30 min, room temperature, amylose pull-down; high values mean tight binding; double strand, one strand shown
T1 sequence: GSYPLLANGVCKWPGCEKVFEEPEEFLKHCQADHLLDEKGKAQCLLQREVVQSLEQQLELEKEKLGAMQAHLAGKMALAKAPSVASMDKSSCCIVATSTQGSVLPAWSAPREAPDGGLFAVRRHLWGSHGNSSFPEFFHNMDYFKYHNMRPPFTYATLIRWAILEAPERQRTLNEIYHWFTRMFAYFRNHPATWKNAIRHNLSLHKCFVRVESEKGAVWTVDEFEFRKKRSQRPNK

| Sequence | binding signal (RPM ratio (pull-down/input)) |
| --- | --- |
| GATGATTGTTCTCCCAGCTGATGAATTCCGTAGATCGAGTAAACAAATTTTCCTAATCTTTCTGTTCAAGCGCCATCTAC | 0.337 |
| GATGATTGTTCTCCCAGCTGATGAATTGAAGAATTCGAGTAAACAAATTTTCCTAATCTTTCTGTTCAAGCGCCATCTAC | 0.597 |
| GATGATTGTTCTCCCAGCTGATGAATTTATATCCTCGAGTAAACAAATTTTCCTAATCTTTCTGTTCAAGCGCCATCTAC | 1.61 |
| GATGATTGTTCTCCCAGCTGATGAATTCACAGGATCGAGTAAACAAATTTTCCTAATCTTTCTGTTCAAGCGCCATCTAC | 0.199 |
| GATGATTGTTCTCCCAGCTGATGAATTGATGGCCTCGAGTAAACAAATTTTCCTAATCTTTCTGTTCAAGCGCCATCTAC | 0.732 |
| GATGATTGTTCTCCCAGCTGATGAATTTCAGATATCGAGTAAACAAATTTTCCTAATCTTTCTGTTCAAGCGCCATCTAC | 0.319 |
| GATGATTGTTCTCCCAGCTGATGAATTAGCACAGTCGAGTAAACAAATTTTCCTAATCTTTCTGTTCAAGCGCCATCTAC | 0.346 |
| GATGATTGTTCTCCCAGCTGATGAATTTTGAATTTCGAGTAAACAAATTTTCCTAATCTTTCTGTTCAAGCGCCATCTAC | 1.67 |
| GATGATTGTTCTCCCAGCTGATGAATTAGCAAAGTCGAGTAAACAAATTTTCCTAATCTTTCTGTTCAAGCGCCATCTAC | 0.236 |
| GATGATTGTTCTCCCAGCTGATGAATTCCCTGTTTCGAGTAAACAAATTTTCCTAATCTTTCTGTTCAAGCGCCATCTAC | 0.346 |
| GATGATTGTTCTCCCAGCTGATGAATTTGCATTATCGAGTAAACAAATTTTCCTAATCTTTCTGTTCAAGCGCCATCTAC | 4.81 |
| GATGATTGTTCTCCCAGCTGATGAATTCCCTCGATCGAGTAAACAAATTTTCCTAATCTTTCTGTTCAAGCGCCATCTAC | 0.23 |
| GATGATTGTTCTCCCAGCTGATGAATTGAAAGTTTCGAGTAAACAAATTTTCCTAATCTTTCTGTTCAAGCGCCATCTAC | 0.264 |
| GATGATTGTTCTCCCAGCTGATGAATTCATGGAATCGAGTAAACAAATTTTCCTAATCTTTCTGTTCAAGCGCCATCTAC | 0.239 |
| GATGATTGTTCTCCCAGCTGATGAATTTTTACGATCGAGTAAACAAATTTTCCTAATCTTTCTGTTCAAGCGCCATCTAC | 0.226 |
| GATGATTGTTCTCCCAGCTGATGAATTGCCACTATCGAGTAAACAAATTTTCCTAATCTTTCTGTTCAAGCGCCATCTAC | 2.31 |

| Sequence | binding signal (RPM ratio (pull-down/input)) |
| --- | --- |
| GATGATTGTTCTCCCAGCTGATGAATTCAACTAATCGAGTAAACAAATTTTCCTAATCTTTCTGTTCAAGCGCCATCTAC | 0.338 |
| GATGATTGTTCTCCCAGCTGATGAATTGGTAGCTTCGAGTAAACAAATTTTCCTAATCTTTCTGTTCAAGCGCCATCTAC | 0.798 |
| GATGATTGTTCTCCCAGCTGATGAATTGAGGATCTCGAGTAAACAAATTTTCCTAATCTTTCTGTTCAAGCGCCATCTAC | 0.274 |
| GATGATTGTTCTCCCAGCTGATGAATTTCCTAATTCGAGTAAACAAATTTTCCTAATCTTTCTGTTCAAGCGCCATCTAC | 0.281 |
| GATGATTGTTCTCCCAGCTGATGAATTAAAATTATCGAGTAAACAAATTTTCCTAATCTTTCTGTTCAAGCGCCATCTAC | 0.442 |
| GATGATTGTTCTCCCAGCTGATGAATTCAATGGTTCGAGTAAACAAATTTTCCTAATCTTTCTGTTCAAGCGCCATCTAC | 1.23 |
| GATGATTGTTCTCCCAGCTGATGAATTAACGGGATCGAGTAAACAAATTTTCCTAATCTTTCTGTTCAAGCGCCATCTAC | 0.282 |
| GATGATTGTTCTCCCAGCTGATGAATTGTAACTGTCGAGTAAACAAATTTTCCTAATCTTTCTGTTCAAGCGCCATCTAC | 0.769 |
| GATGATTGTTCTCCCAGCTGATGAATTGCCGTATTCGAGTAAACAAATTTTCCTAATCTTTCTGTTCAAGCGCCATCTAC | 1.46 |
| GATGATTGTTCTCCCAGCTGATGAATTATCGTCATCGAGTAAACAAATTTTCCTAATCTTTCTGTTCAAGCGCCATCTAC | 0.67 |
| GATGATTGTTCTCCCAGCTGATGAATTTGCCTGATCGAGTAAACAAATTTTCCTAATCTTTCTGTTCAAGCGCCATCTAC | 0.579 |
| GATGATTGTTCTCCCAGCTGATGAATTGTCAGCTTCGAGTAAACAAATTTTCCTAATCTTTCTGTTCAAGCGCCATCTAC | 0.463 |
| GATGATTGTTCTCCCAGCTGATGAATTTGGGTCATCGAGTAAACAAATTTTCCTAATCTTTCTGTTCAAGCGCCATCTAC | 0.724 |
| GATGATTGTTCTCCCAGCTGATGAATTACAAATGTCGAGTAAACAAATTTTCCTAATCTTTCTGTTCAAGCGCCATCTAC | 0.549 |
| GATGATTGTTCTCCCAGCTGATGAATTTGACGATTCGAGTAAACAAATTTTCCTAATCTTTCTGTTCAAGCGCCATCTAC | 0.377 |
| GATGATTGTTCTCCCAGCTGATGAATTTTCGAAGTCGAGTAAACAAATTTTCCTAATCTTTCTGTTCAAGCGCCATCTAC | 0.208 |
